Test results published in PubChem BioAssay AID1347071 (National Center for Advancing Translational Sciences (NCATS), 2019).
Screen size: about 410,000 compounds; about 260 (0.063%) were called active. Inconclusive means that the source gave no clear call. Such entries were picked first, then a sample of the others. The call rests on the fitted dose curve; in most records, active means well fitted activation curve with a large enough effect; inconclusive means small, poorly fitted or top-dose-only effect; inactive means no such curve, though single readings can be large or run the other way. Potencies of inconclusive entries are left out as doubtful fits.
Potency means the concentration at half of the fitted maximal effect; tags describe the fitted curve by direction and shape.

Assay: qHTS for compounds that reverse cellular toxicity of Amyloid beta (A-beta) peptide in yeast: Primary Screen; further: nearly all actives have a fitted effect of over 55% in size
Settings: yeast expressing A-beta42, growth rescue, OD600, 48 h; growth rescue: at 46.1 µM (top of the series), 0% DMSO, 100% iron-clioquinol control
Outline: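 Yeast A-beta toxicity model in growth medium with pinned compounds, 48 h at 30 C; growth read as absorbance at 600 nm. Normalized to FeCl3/clioquinol equimolar mix (positive) and DMSO (negative).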
In the case of `Cc1c(N2C(=O)/C(=C\c3ccccc3O)SC2=S)c(=O)n(-c2ccccc2)n1C`, the Potency is reported as inconclusive [activator, single point]. For `CCCCNC(=O)CCCCCn1c(=O)[nH]c2cc(C(=O)OC)ccc2c1=O`, the Potency was “inactive”. For `CC1=Cc2ccccc2C(C#N)N1C(=O)c1ccccc1` (centres undefined), the Potency was inconclusive [activator, partial curve]. For `COc1ccc2cc3cc(C(=O)NCCc4ccc(OC)c(OC)c4)oc3nc2c1`, the Potency was inconclusive [activator, single point]. In the case of `COc1ccc2[nH]c(=O)c(CN(CCCN3CCOCC3)C(=O)NCc3ccccc3)cc2c1`, the Potency is reported as inconclusive [activator, full curve, poor fit]. For `CN(C)CCCOc1cccc(Cl)c1`, the Potency was inconclusive [activator, partial curve, poor fit]. For `Cc1nc(CNC(=O)CC2C(=O)NCCN2Cc2ccc(F)cc2)cs1` (centres undefined), the Potency was “inactive”. With `C/C(=N\OCC(=O)Nc1ccc(OC(F)(F)F)cc1)c1ccc2c(c1)OCCO2` the Potency was inconclusive [activator, partial curve, poor fit]. With `Cn1nnnc1N=N/C(=N/Nc1ccccc1)c1ccccc1` the Potency was inconclusive [activator, partial curve, poor fit]. For `O=C(NCCCc1ccccc1)C1CCC(=O)N(Cc2ccc(Cl)cc2)C1` (centres undefined), the Potency was “inactive”. For `CC(C)(C)c1nnc(NC(=O)c2cc(-c3ccccc3)nc3ccccc23)s1`, the Potency was “inactive”. With `C[C@H]([C@@H](N)C(=O)N[C@@H](C(=O)O)[C@@H]1O[C@H](n2ccc(=O)[nH]c2=O)[C@@H](O)[C@H]1O)[C@@H](O)c1ccc(O)cn1` the Potency was inconclusive [activator, partial curve, poor fit]. For `CCCC[n+]1ccn(-c2nc3ccccc3nc2[N-]S(=O)(=O)c2ccc(Br)cc2)c1`, the Potency was inconclusive [activator, single point]. In the case of `Cc1c(NC(=O)c2sc3c([N+](=O)[O-])cccc3c2Cl)cccc1-c1nc2ccccc2o1`, the Potency is reported as “inactive”. With `COc1ccccc1N1CCN(C(=O)c2oc3ccc(Br)cc3c2C)CC1` the Potency was “inactive”. For `COc1ccccc1N1CCN(C(=O)c2oc3ccc(F)cc3c2C)CC1`, the Potency was inconclusive [activator, single point]. With `CCOC(=O)c1[nH]c(C)c(CCC(=O)Nc2ccc(N(CC)CC)cc2C)c1C` the Potency was “inactive”. With `C=CCNC(=S)Nc1ccc(C)cc1[N+](=O)[O-]` the Potency was inconclusive [activator, single point]. For `CCCOC(=O)c1ccc(NC(=O)C2CCCO2)cc1` (centres undefined), the Potency was inconclusive [activator, single point]. For `O=C(NC(=S)Nc1ccccc1N1CCCC1)c1cccc(F)c1`, the Potency was active: 7.94 µM. For `Cc1ccc2nc(-c3cccnc3)oc2c1`, the Potency was “inactive”. In the case of `CN(C)C(=S)Oc1ccccc1C1SCCS1`, the Potency is reported as inconclusive [activator, single point]. In the case of `COc1cccc2sc(Nc3nnc(-c4cccs4)o3)nc12`, the Potency is reported as “inactive”. For `N/C(=N\OC(=O)c1cccc(Br)c1)c1ccccn1`, the Potency was “inactive”. In the case of `CC12CCC(O)CC1=CCC1C2CCC2(C)C(c3ccn[nH]3)CCC12` (centres undefined), the Potency is reported as inconclusive [activator, full curve, poor fit]. In the case of `CC(C)c1ccccc1OCC(O)CN1CCN(S(=O)(=O)c2ccc([N+](=O)[O-])cc2)CC1` (centres undefined), the Potency is reported as inconclusive [activator, partial curve]. With `Cc1c(C(=O)N(C)c2cccc(C(F)(F)F)c2)sc2nc3n(c(=O)c12)CCCCC3` the Potency was “inactive”. With `Cc1ccc(-c2nnc(NC(=O)c3ccco3)o2)c(C)c1` the Potency was inconclusive [activator, single point]. In the case of `CCCCNc1c(-c2ccc(OC)c(SC(C)CC)c2)nc2ccc(C)cn12` (centres undefined), the Potency is reported as “inactive”. With `S=c1[nH]nc(C2CCCCC2)n1/N=C/c1ccccc1` the Potency was inconclusive [activator, partial curve, poor fit]. For `CCc1cccc(CC)c1NC(=S)Nc1ccccc1`, the Potency was active: 14.1 µM. In the case of `O=C(CCCN=C1NS(=O)(=O)c2ccccc21)OCC(=O)c1ccc(Br)cc1`, the Potency is reported as inconclusive [activator, single point]. For `CC(=O)N(c1cccc(C)c1)C1SC(=O)N(c2ccccc2)C1=O` (centres undefined), the Potency was inconclusive [activator, partial curve, poor fit]. For `Cc1ccc2sc(NNC(=O)C3COc4ccccc4O3)nc2c1C` (centres undefined), the Potency was “inactive”. In the case of `FC(F)Oc1ccc(NC(=S)NC2CCCCCCC2)cc1`, the Potency is reported as active: 11.2 µM. With `CN(C)c1ccc(C(CNS(=O)(=O)c2ccc(Br)cc2)N2CCOCC2)cc1` (centres undefined) the Potency was “inactive”. With `COc1ccc(OCC(=O)Nc2ccc(N3CCN(C(=O)c4ccccc4C)CC3)cc2)cc1` the growth rescue was inconclusive: -6.12% [activator]. For `Cc1ccc(Nc2nc(N/N=C/c3c[nH]c4ccccc34)nc(N3CCOCC3)n2)cc1`, the Potency was inconclusive [activator, single point]. With `CCCc1cc(C(=O)NNC(=S)NC2CCCCC2)cs1` the Potency was inconclusive [activator, full curve]. For `CCOC(=O)NC1(C(F)(F)F)NC(=O)N(Cc2ccco2)C1=O` (centres undefined), the Potency was inconclusive [activator, full curve, poor fit]. With `CC1(C)CC2CC(C)(CN2C(=S)Nc2ccccc2)C1` (centres undefined) the Potency was inconclusive [activator, single point]. With `CCCCn1c(N)c(N(CC)C(=O)C2CCC2)c(=O)[nH]c1=O` the Potency was inconclusive [activator, partial curve, poor fit]. With `Cc1ccc(N2CCN(C(=O)c3cc(C(=O)c4ccccc4C)c[nH]3)CC2)c(C)c1` the Potency was inconclusive [activator, partial curve, poor fit]. With `CC(Cc1ccccc1)NC(=S)CN1CCCC1=S` (centres undefined) the Potency was inconclusive [activator, single point]. With `Cc1ccccc1-c1csc(C(O)c2ccc(F)cc2)n1` (centres undefined) the Potency was inconclusive [activator, single point]. With `O=C(NCCc1ccccc1)c1ccc2c(c1)N(Cc1ccc(Cl)cc1)C(=O)c1ccccc1S2(=O)=O` the Potency was “inactive”. With `COc1ccccc1-c1cn[nH]c1-c1ccc(OCc2ccc(F)cc2)cc1O` the Potency was inconclusive [activator, single point]. In the case of `CCn1cc(C(=O)OCC(=O)Nc2cc(Cl)ccc2C)c(=O)c2ccc(C)nc21`, the Potency is reported as inconclusive [activator, partial curve, poor fit]. In the case of `CCN(CC)S(=O)(=O)c1cccc(C(=O)NCC2CCCO2)c1` (centres undefined), the Potency is reported as “inactive”. For `CCn1c(=NC(=O)CSC(C)=O)sc2ccccc21`, the Potency was inconclusive [activator, partial curve, poor fit]. In the case of `CN(C)c1ccc(C(O)c2cc3ccccc3s2)cc1` (centres undefined), the Potency is reported as inconclusive [activator, partial curve, poor fit]. For `C=CC[C@@H](CC(=O)N(CCO)Cc1ccccc1)C(=O)N[C@H](COC(=O)[C@@H](CC=C)CC(=O)OC(C)(C)C)Cc1ccccc1`, the Potency was “inactive”. With `Cc1cc(C)cc(NC(=O)CSc2c(C(C)C)cnc3c2c(=O)n(C)c(=O)n3C)c1` the Potency was “inactive”. For `Cn1ncc(Br)c1NC(=O)CSc1ccc(Cl)cc1`, the Potency was inconclusive [activator, partial curve, poor fit]. In the case of `COc1cccc(-c2cc3nc(-c4ccccc4)cc(N4CCN(C(=O)c5ccoc5)CC4)n3n2)c1`, the Potency is reported as “inactive”. For `O=C(Nc1ccccc1Cc1ccccc1)c1ccncc1`, the Potency was inconclusive [activator, partial curve, poor fit]. For `O=C(C1CCN(S(=O)(=O)c2ccccc2)CC1)N1CCc2ccccc21`, the Potency was “inactive”. With `CC(C)(C)NC(=O)C(c1cc2ccccc2o1)n1c(=O)c(-c2cc3ccccc3[nH]2)nc2ccccc21` (centres undefined) the Potency was inconclusive [activator, partial curve, poor fit]. With `CCCOc1ccc(F)cc1-c1cc(C(=O)Nc2ccc(F)c(Cl)c2)[nH]n1` the Potency was inconclusive [activator, partial curve]. For `O=C(CNC1CCCCCC1)Nc1ccccc1N1CCCCC1`, the Potency was inconclusive [activator, partial curve, poor fit]. With `COc1ccc2nc3cccc(OC)c3nc2c1` the Potency was inconclusive [activator, single point]. In the case of `CCOc1ccc(N(C(C)C(=O)Nc2cc(Cl)ccc2OC)S(C)(=O)=O)cc1` (centres undefined), the Potency is reported as inconclusive [activator, single point]. In the case of `CC(C)CCN1NC2(CCCC(C)C2)NC1=S` (centres undefined), the Potency is reported as inconclusive [activator, single point]. For `CC(=O)NC(c1ccccc1)c1cc(Cl)c2cccnc2c1O` (centres undefined), the Potency was inconclusive [activator, partial curve]. In the case of `COc1ccccc1C(C[N+](=O)[O-])c1c[nH]c2ccccc12` (centres undefined), the Potency is reported as “inactive”. With `O=C(COc1ccccc1)Nc1nnc(-c2ccc(F)cc2)o1` the Potency was inconclusive [activator, single point]. For `Cc1ccc(SCC2(O)CCN(C(=O)c3ccc(Cl)cc3)CC2)cc1`, the Potency was inconclusive [activator, partial curve, poor fit]. With `COc1ccc(-c2[nH]c(-c3cccc(OC)c3)nc2SCC(=O)NC2CCCC2)cc1` the Potency was “inactive”. With `O=C(C#Cc1ccccc1)c1ccc([N+](=O)[O-])cc1` the Potency was “inactive”.
